± gives the standard deviation of the averaged measurements. Whole data set: some 1,900 compounds, median “CD40L-induced NF-kB luciferase activity, plate-corrected, relative to DMSO (0) and IKK inhibitor VII (-100) controls” near 0.032, cut for the lowest 2% near -26. This is one part of the list.

This assay concerns BL2-NFkB-Luc. Description: CD40L-induced NF-kB luciferase activity, plate-corrected, relative to DMSO (0) and IKK inhibitor VII (-100) controls (% normalized activity); higher = more NF-kB reporter activity (less inhibition). The following applies: 9.4 µM; stimulus: tCD40L 64 ng/ml; 4.5 h. The protocol:
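BL2 B cells with a stable NF-kB response-element luciferase reporter (BL2-NFkB-Luc), 384-well. Cells were pre-incubated with compound at 9.4 uM for 1 h at 37 C, then stimulated with 64 ng/ml trimerized CD40L for 4.5 h; luciferase was read with Steady-Glo. Signal was normalised per plate in Genedata (median DMSO neutral control = 0, median IKK inhibitor VII at 50 uM = -100) with Assay Median plate-pattern correction; duplicate plates.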
Consider `NC(N)=NC(=O)Cc1c(Cl)cccc1Cl`, for which the “CD40L-induced NF-kB luciferase activity” value is -6.83 ± 6.3.
Next, `C[C@H](NC(=O)OC(C)(C)C)C(=O)NCC1CCC(C(=O)O)CC1` (stereo not given in full): 2.59 ± 0.03; `CN(CCO)CC(O)Cn1cnc2c1c(=O)n(C)c(=O)n2C` (stereo not given): -3.01 ± 0.15.
For `NS(=O)(=O)c1cc2c(cc1Cl)NC(C(Cl)Cl)NS2(=O)=O` (stereo not given), the “CD40L-induced NF-kB luciferase activity” value was 2.87 ± 3.3.
On to `O=C(Cc1c[nH]c2ccccc12)OCCOC(=O)Cc1c[nH]c2ccccc12`, for which the “CD40L-induced NF-kB luciferase activity” value was -3.25 ± 3.6.
On to `CC(=O)N1N=C(c2cccs2)CC1c1ccc(C)o1` (stereo not given), for which the “CD40L-induced NF-kB luciferase activity” value was 0.129 ± 2.6.
In the case of `Cc1cc(=O)oc(C)c1C(=O)NCCC(C)C`, the “CD40L-induced NF-kB luciferase activity” value stood at 4.9 ± 3.
Regarding `O=C(CCCC(=O)OCC1CCCO1)OCC1CCCO1` (stereo not given), the “CD40L-induced NF-kB luciferase activity” value was -8.19 ± 8.
As to `O=P(O)(O)CP(=O)(O)O`, the “CD40L-induced NF-kB luciferase activity” value turned out to be 6.79 ± 4.2.
As to `Cn1c(=O)c2nc3ccccc3nc2n(C)c1=O`, the “CD40L-induced NF-kB luciferase activity” value was 12.48 ± 0.071.
`CC(C(=O)O)c1ccc(-c2ccccc2)c(F)c1` (stereo not given): the “CD40L-induced NF-kB luciferase activity” value turned out to be 2.04 ± 0.53.
For `C=CCOc1ccc(C(=O)CC)cc1OC`, the “CD40L-induced NF-kB luciferase activity” value is -1.53 ± 1.7.
The result for `Cn1c(=O)[nH]c2nnc(-c3ccc(Cl)c(Cl)c3)nc2c1=O` reads 25.5 ± 4.7; that for `CSCCC(NC(=O)OC(C)(C)C)C(=O)Oc1ccc2c(=O)c(-c3ccc4c(c3)OCCO4)coc2c1` (stereo not given), 11.9 ± 6.7; that for `CN(C)C(=O)C(CCN1CCC(O)(c2ccc(Cl)cc2)CC1)(c1ccccc1)c1ccccc1`, -4.63 ± 1.5.
For `COc1cc2c(cc1OC)C(c1cc(OC)c(OC)c(OC)c1)NCC2` (stereo not given), the “CD40L-induced NF-kB luciferase activity” value was -1.85 ± 0.47.
As to `CCCCC[C@H](O)/C=C/C1=C(CCCCCCC(=O)O)C(=O)CC1`, the “CD40L-induced NF-kB luciferase activity” value is -4.93 ± 1.7.
The result for `COc1cccc(-n2c(C)c3c(OC)cccc(=O)c3c2C)c1` reads -4.99 ± 6.2.
On to `Oc1c(Cl)cc(Cl)c(Cl)c1Cc1c(O)c(Cl)cc(Cl)c1Cl`, for which the “CD40L-induced NF-kB luciferase activity” value was -6.22 ± 3.
In the case of `O=C(CCC(=O)NCCO)NCCO`, the “CD40L-induced NF-kB luciferase activity” value amounted to 1.09 ± 0.48.
Turning to `COc1ccc(C(=O)/C=C2/c3ccccc3CC(C)(C)N2C)cc1`, the “CD40L-induced NF-kB luciferase activity” value worked out at 4.49 ± 0.47.
Consider `CNc1nc(Nc2ccccc2)nc(OCC(F)(F)F)n1`, for which the “CD40L-induced NF-kB luciferase activity” value was determined as 2.12 ± 3.1.
Next, `COc1cccc(OC)c1C(=O)NCCSC1CCCCC1`: 0.829 ± 0.17; `Oc1ccc(/C=C/c2cc(O)cc(O)c2)cc1`: 44.38 ± 0.15.
With `CCc1nc2ccccc2c(NC(=O)CN2CC(C)CC(C)C2)c1C` (stereo not given), the “CD40L-induced NF-kB luciferase activity” value is -3.42 ± 6.9.
Turning to `CC(=O)N/C(=C/c1ccc2c(c1)OCO2)C(=O)NCCO`, the “CD40L-induced NF-kB luciferase activity” value stood at 2.15 ± 2.1.
In the case of `COc1ccc(/C=C/C(=O)Nc2ccccc2C(=O)O)cc1OC`, the “CD40L-induced NF-kB luciferase activity” value was -57.1 ± 1.6.
In the case of `COC(=O)c1cc(-c2ccc(OC)c(OC)c2)on1`, the “CD40L-induced NF-kB luciferase activity” value was -0.743 ± 1.4.
As for `COc1cc2c(cc1OC)/C(=C/c1ccc(Cl)cc1)C(=O)OC2`, the “CD40L-induced NF-kB luciferase activity” value is -0.812 ± 2.7.
For the molecule `CC(=O)c1ccc(CCCCCCCCCC(=O)O)s1`, the “CD40L-induced NF-kB luciferase activity” value is 4.89 ± 2.2.
For the molecule `C=C(C)Cn1c(NCCOC)nc2c1c(=O)[nH]c(=O)n2C`, the “CD40L-induced NF-kB luciferase activity” value was -1.58 ± 2.6.
For the molecule `Cc1cc(=O)[nH]c(=S)[nH]1`, the “CD40L-induced NF-kB luciferase activity” value was 2.7 ± 1.2.
Consider `O=C(CCCCCCCC(=O)c1ccccc1)c1ccccc1`, for which the “CD40L-induced NF-kB luciferase activity” value amounted to 3.49 ± 0.72.
The result for `Cc1ccc(Nc2ncccc2C(=O)O)cc1C` reads 36.8 ± 2.2; that for `COc1ccccc1C(=O)Oc1ccc2c(c1)O/C(=C\c1ccncc1)C2=O`, -3.17 ± 3.9; that for `CN(C)CCOC(C)(c1ccccc1)c1ccccn1` (stereo not given), 1.25 ± 1.6.
Regarding `Cc1oc2c(CN3CCCC3)c(O)ccc2c(=O)c1-c1ccc(Cl)cc1`, the “CD40L-induced NF-kB luciferase activity” value worked out at 8.32 ± 2.4.
Regarding `CN(C(=O)C(Cl)Cl)c1ccc(OC(=O)c2ccco2)cc1`, the “CD40L-induced NF-kB luciferase activity” value stood at 0.505 ± 2.8.
For the molecule `Cc1ccc(S(=O)(=O)NC(C(=O)Oc2ccc3c(C(F)(F)F)cc(=O)oc3c2)c2ccccc2)cc1` (stereo not given), the “CD40L-induced NF-kB luciferase activity” value was -3.22 ± 4.6.
For `COC(=O)c1cc(OC)c(OC)cc1NC(=O)CN1C(=O)c2ccccc2C1=O`, the “CD40L-induced NF-kB luciferase activity” value came to 8.56 ± 6.7.
As to `C[N+]1(C2CCC3CCCC2C3O)CCCCC1` (stereo not given), the “CD40L-induced NF-kB luciferase activity” value was -1.43 ± 5.8.
For `CC(C)[N+]1(C)[C@@H]2CC[C@H]1CC(OC(=O)C(CO)c1ccccc1)C2` (stereo not given in full), the “CD40L-induced NF-kB luciferase activity” value was -0.414 ± 0.2.
As to `CNC[C@H](O)c1ccc(O)c(O)c1`, the “CD40L-induced NF-kB luciferase activity” value is -11.2 ± 3.2.
Next, `CN1CCN(CCCN2c3ccccc3Sc3ccc(C(F)(F)F)cc32)CC1`: 1.23 ± 2.6; `Cc1ncc(C(=O)O)c(C(=O)O)c1N`: -0.489 ± 5.9.
For `CC(C)CC(NC(=O)C1CCCN1C(=O)OC(C)(C)C)C(=O)NCC(N)=O` (stereo not given), the “CD40L-induced NF-kB luciferase activity” value is -0.318 ± 0.65.
Consider `Cc1ccc(S(=O)(=O)n2ccnc2)cc1C`, for which the “CD40L-induced NF-kB luciferase activity” value was -16.2 ± 6.2.
Regarding `COc1ccc(NC(=O)C2C(=O)N(CCO)C3(C)CC2c2ccccc2O3)cc1` (stereo not given), the “CD40L-induced NF-kB luciferase activity” value came out at 5.36 ± 7.6.
On to `Cc1csc(-c2coc3cc(O)cc(C)c3c2=O)n1`, for which the “CD40L-induced NF-kB luciferase activity” value came out at 62.8 ± 3.9.
For `CC(C)OC(=O)CC1C(=O)NCCN1C(=S)NC(=O)c1cccs1` (stereo not given), the “CD40L-induced NF-kB luciferase activity” value is -11.9 ± 12.
Regarding `CC(NC(=O)c1cccnc1)C(=O)O` (stereo not given), the “CD40L-induced NF-kB luciferase activity” value was -1.3 ± 1.4.
For the molecule `NC(N)=NC(N)=NCCc1ccccc1`, the “CD40L-induced NF-kB luciferase activity” value is -4.45 ± 1.2.
The result for `O=C(NN=Cc1cc([N+](=O)[O-])ccc1N1CCOCC1)c1ccccn1` reads -0.874 ± 1.6; that for `COc1ccc(OCc2cccc(C(=O)NN)c2)cc1`, -59.1 ± 2.2; that for `O=C(COc1ccc2ccc(=O)oc2c1)c1ccccc1`, 16.8 ± 3.2.
As for `CCc1cccc2c1NC1(CCCC1)CC2C` (stereo not given), the “CD40L-induced NF-kB luciferase activity” value turned out to be 1.37 ± 4.9.
Take `O[C@H]1COC2C1OC[C@@H]2O` (stereo not given in full): the “CD40L-induced NF-kB luciferase activity” value is 1.47 ± 0.99.
In the case of `COc1ccc2c(c1)c(CC(=O)O)c(C)n2C(=O)c1ccc(Cl)cc1`, the “CD40L-induced NF-kB luciferase activity” value is 1.16 ± 3.5.
The result for `CC(C)CN1CCN(Cc2ccc(C#CC(C)(C)O)cc2)CC1CCO` (stereo not given) reads -2.16 ± 1.9; that for `Nc1nc2ccc(OC(F)(F)F)cc2s1`, 19.1 ± 9.8.

The values above are taken from the supplement of paper PMC3656093.
